Experimental data: PubChem BioAssay AID485313 (National Center for Advancing Translational Sciences (NCATS), 2010)
The whole screen tested about 320,000 compounds, of which about 7,600 (2.4%) were called active. Inconclusive results, whose numbers are uncertain, are shown with a selection of clear calls. Calls follow the shape of the dose curve; as a rule, active = well fitted activation curve with a large enough effect; inconclusive = small, poorly fitted or top-dose-only effect; inactive = no such curve, though single readings can be large or run the other way. No potency is given beside an inconclusive call; the fits are too rough.

Assay: qHTS Assay for NPC1 Promoter Activators; also: nearly all actives have a fitted effect of over 60% in size;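 as to activation: reporter is driven by a mutant NPC1 promoter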
Conditions: Huh7 NPC1 promoter luciferase reporter, 24 h; series mostly up to 9.22 µM
Outline: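 Stable NPC1-promoter luciferase Huh7 line; cpd (DMSO) 24 h, 37 °C, 5% CO2; Amplite luciferase reagent 10 min RT; luminescence readout. qHTS format.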
Potency is read from the fitted curve at half-maximal effect; tags tell the direction and shape of the fitted curve.

Compound | Potency
Cc1ccc2nc(NC(=O)COC(=O)c3ccncc3)sc2c1 | inconclusive [activator, single point]
COc1ccc(C(=O)Nc2ccccc2C(=O)Nc2ccncc2)cc1 | inconclusive [activator, single point]
CCOC(=O)c1ccc(Nc2nc(-c3cccnc3)nc3ccccc23)cc1 | inactive
Nc1c(C(=O)Nc2ccccc2F)sc2nc(-c3ccco3)ccc12 | inconclusive [activator, partial curve]
CN(C)CCCNC(=O)C(=O)Nc1cc2c3c(c1)CCC(=O)N3CCC2 | inactive
O=[N+]([O-])c1ccc(O)c(/C=N/Nc2ccc(Cl)nn2)c1 | active: 3.16 µM
Cc1ccc(C)c(NC(=O)c2cnc3n(c2=O)CCS3)c1 | inconclusive [activator, partial curve]
CCOC(=O)CN1C(=O)S/C(=C/c2cc(C)n(-c3ccccn3)c2C)C1=O | inconclusive [activator, partial curve]
Cc1ncoc1C(=O)Nc1cccc(Cl)c1 | inconclusive [activator, partial curve]
CCCNC(=O)c1ccccc1NC(=O)c1ccccc1N(C)S(=O)(=O)c1ccc(C)cc1 | inactive
O=C(Nc1c(C(=O)N2CCN(c3ccccn3)CC2)oc2ccccc12)c1cccc([N+](=O)[O-])c1 | inactive
CC(C)Cc1nnc(NC(=O)c2ccc([N+](=O)[O-])cc2)s1 | inconclusive [activator, partial curve]
COC(=O)C1=C(C)NC(C)=C(C(=O)OC)C1c1ccc(C)o1 | inactive
CC(C)CNC(=O)C(=O)N/N=C/c1cccs1 | inconclusive [activator, partial curve]
Clc1cccc(-c2nnc(-c3ccno3)o2)c1 | inactive
COc1ccc(Nc2nnc(SCC(=O)c3cc(C)n(CC4CCCO4)c3C)s2)cc1 (configuration not stated) | inactive
CCSc1nsc(NC(=O)Nc2ccccc2F)n1 | active: 2.82 µM
C/C(=C\c1ccc(Br)cc1)C(=O)c1c(C)cc(C)[nH]c1=O | inactive
O=C(Cn1ncc(N2CCCC2)c(Cl)c1=O)c1ccc(Cl)cc1 | active: 2.51 µM
CCOC(=O)c1ccccc1NC1c2ccccc2C(=O)N1c1ccc(C)cn1 (configuration not stated) | inconclusive [activator, partial curve]
C(=N\N=C\c1cccs1)/c1cccs1 | inconclusive [activator, single point]

Compound | Potency
COc1ccc(-c2noc(-c3cccc(OC)c3OC)n2)cc1OC | inconclusive [activator, single point]
O=C(Cc1ccccc1)Nc1ccc(N2CCCCC2)cc1 | active: 1.78 µM
CC(C)(C)C(=O)NC(=S)Nc1sc2c(c1C(N)=O)CCC2 | inconclusive [activator, partial curve]
COc1cccc(CC(NC(C)=O)C(=O)NC2CCN(C(=O)c3ccncc3)CC2)c1OC (configuration not stated) | inactive
COc1ccc2o/c(=N/NC(=O)c3cccs3)c(C(N)=O)cc2c1 | inconclusive [activator, partial curve]
Cc1nc2ccccn2c1C(=O)NNC(=O)Nc1cccc(C(F)(F)F)c1 | inactive
O=C(NC(=S)NCCO)c1sc2ccccc2c1Cl | inconclusive [activator, partial curve]
O=C(O)c1cc(-c2cccnc2)nc2ccc(Br)cc12 | inactive
CC1=NN(C(N)=S)C(=O)C1N=Nc1ccc(Cl)cc1Cl (configuration not stated) | active: 3.16 µM
CC(C)(C)OC(=O)COc1ccc(/C=N/NC(=O)CN2CCCCC2)cc1 | active: 1.58 µM
O=C(Nc1ccc(CN2CCOCC2)cc1)c1ccc(F)cc1 | inconclusive [activator, partial curve]
CN1CCSc2ccc(C(=O)Nc3cccc(F)c3)cc21 | active: 1.41 µM
Cn1c(-c2ccccc2)c(/C=N/NC(=O)c2ccc(O)cc2)c2ccccc21 | inconclusive [activator, partial curve]
Cc1ccccc1C(=O)Nc1ccc2c(c1)OCO2 | active: 0.447 µM
O=C(COC(=O)C12CC3CC(CC(O)(C3)C1)C2)Nc1ccc(Cl)cc1F | inconclusive [activator, partial curve]
O=[N+]([O-])c1cc2cccnc2c2ncccc12 | inactive
Cc1onc(-c2c(Cl)cccc2Cl)c1C(=O)c1c[nH]c(C(=O)NCC2CCCO2)c1 (configuration not stated) | inactive
O=Cc1sc([O-])nc1-[n+]1ccc2ccccc2c1 | inactive
c1ccc(Cn2c(NCc3ccco3)nc3ccccc32)cc1 | inactive
c1ccc(CCCc2nc(-c3ccccn3)no2)cc1 | active: 2.82 µM
O=C(c1ccc(S(=O)(=O)c2ccccc2Cl)c([N+](=O)[O-])c1)N1CCN(Cc2ccccc2)CC1 | inactive

Compound | Potency
CC1CCC(NC(=O)CCN2C(=O)C3C4C=CC(C4)C3C2=O)CC1 (configuration not stated) | inactive
O=C(COC(=O)Cn1cnc2ccccc21)Nc1ccc2c(c1)C(=O)c1ccccc1C2=O | inconclusive [activator, single point]
Cc1ccc(NC(=O)CN2C(=O)C3C4C=CC(C4)C3C2=O)cc1 (configuration not stated) | inactive
CCOc1ccc2nc(NC(=O)CSCC(=O)Nc3cc(C)on3)sc2c1 | inconclusive [activator, single point]
COc1ccccc1OCC(=O)N1CCCC(Nc2ccc(F)c(F)c2)C1 (configuration not stated) | inactive
Cc1cc(C(=O)Nc2nnc(C3CCCCC3)s2)cs1 | inconclusive [activator, partial curve]
N/C(=N\OC(=O)Cc1cccs1)c1ccccc1 | inconclusive [activator, single point]
Cc1nc(C)c(C(=O)N/N=C/c2c[nH]c3ccccc23)s1 | inactive
O=C(COC(=O)C1CC1)Nc1ccc(N=Nc2ccccc2)cc1 | active: 3.55 µM
O=[N+]([O-])c1ccc(NCCCO)c(S(=O)(=O)N2CCOCC2)c1 | inactive
Cc1cccc(C)c1NC(=O)C1CCCN1C(=O)NCc1ccccc1 (configuration not stated) | inactive
C=CCn1c(C)cc(C(=O)COc2nncc3ccccc23)c1C | active: 1.41 µM
CCCCn1c(N)c(N(CC(C)C)C(=O)CCNC(=O)c2ccc([N+](=O)[O-])cc2)c(=O)[nH]c1=O | inactive
O=C(COc1ccc2ccc(=O)oc2c1)Nc1cccc(S(=O)(=O)N2CCCCC2)c1 | inactive
COC(=O)c1ccc2c(CCO)c[nH]c2c1 | inconclusive [activator, single point]
CCOC(=O)c1cnc2c(N=Nc3ccccc3)c(N)nn2c1N | active: 1.12 µM
O=C(O)c1ccccc1-c1csc(-c2ccccc2)n1 | inconclusive [activator, partial curve]
S=C(NCCc1ccc(Cl)cc1)NC1CCCCC1 | active: 3.98 µM
Clc1cccc(/C=N/Nc2nc(Cl)nc3ccccc23)c1 | active: 2.82 µM
CC(=O)Cc1nsc(NC(=O)c2ccc(-c3ccc(Cl)cc3Cl)o2)n1 | inactive
Cc1ccc(C(=O)N/N=C/c2ccc3c(c2)OCO3)o1 | active: 3.16 µM

Compound | Potency
NC(=O)C1CCN(c2nc(-c3ccc4occc(=O)c4c3)cs2)CC1 | inconclusive [activator, partial curve]
CCOc1ccc(-c2nc(-c3cccnc3)no2)cc1 | active: 0.631 µM
O=C(NCCc1ccccc1)c1cccnc1 | inconclusive [activator, partial curve]
O=C(CC1CCCC1)Nc1ccc(Br)cc1 | inconclusive [activator, single point]
O=C(Nc1ncccc1O)c1ccc2c(c1)OCCO2 | active: 3.55 µM
O=S(=O)(Cc1cc(-c2ccc(Cl)cc2)no1)c1ccccc1 | inconclusive [activator, partial curve]
CCC(C)C(=O)N1CCCC(c2nc(-c3cccs3)no2)C1 (configuration not stated) | inconclusive [activator, partial curve]
COc1ccc(/C=C2\SC(=O)N(CCC(=O)NCCCn3ccnc3)C2=O)cc1 | inconclusive [activator, partial curve]
Cc1ccc2sc(-c3ccc(NC(=O)CCN4C(=O)c5ccccc5C4=O)cc3)nc2c1 | active: 0.501 µM
CCOC(=O)c1cnc2cc(-c3ccc(Cl)cc3)nn2c1N | active: 1.12 µM
CCOC(=O)C1(Cc2cccc(OC)c2)CCCN(C(=O)c2ccccc2C)C1 (configuration not stated) | inconclusive [activator, single point]
CCn1cc(/C=C/C(=O)c2ccc(O)cc2)c(C)n1 | inconclusive [activator, single point]
CCC(Sc1nnc(-c2ccc(C)c(Cl)c2)n1CC)C(=O)Nc1nccs1 (configuration not stated) | inactive
C/C(=N\NC(=O)c1ccc(CSc2nncn2C)cc1)c1cccs1 | inconclusive [activator, single point]
CCc1nnc(NS(=O)(=O)c2ccc(N/C=C\C(=O)c3ccc4ccccc4c3)cc2)s1 | inactive
Cc1noc(C)c1CCC(=O)N1CCCC(CO)(Cc2ccccc2)C1 (configuration not stated) | inconclusive [activator, partial curve]
O=C(O)C1C2C=CC(C2)C1C(=O)Nc1ccc2c(c1)OCCO2 (configuration not stated) | inconclusive [activator, single point]
Cc1ccc(-c2n[nH]c(Cc3ccccc3)n2)cc1 | active: 2.82 µM
CC(C)CNC(=O)c1cc(-c2ccc3c(c2)OCO3)on1 | active: 0.562 µM
